{"source": "patent US4652575A", "about": "“2-(ethylene-thio methyl furanyl)amino thiazole derivatives having acid secretion inhibiting activity” (Medosan Industrie Biochimiche Riunite S.p.A., priority 1984, dated 1987)", "tested_on": "gastric secretion", "experiment": "Activity on gastric secretion \"in vivo\" (volume and total acidity of gastric juice after pylorus tieing, Shay)", "design": "species or system male Wistar rats", "procedure": "The preparations were a solution of the substances in 2.5% citric acid for the \"in vitro\" test and 5% citric acid for the \"in vivo\" test respectively. Citric acid was diluted in normal physiologic saline at neutral pH.\nThe ability of the compounds according to the present invention to inhibit the gastric secretion was studied \"in vivo\" both by evaluating the volume reduction of gastric juice, and by measuring the total acidity of same after administration of the substances under test according to the Takeda method (see the aforementioned literature).\nTo this end, tests have been made on male Wistar rats of an average weight of 200 g. The animals, 10 for each substance, were placed into individual cages provided with ground grating in order to avoid coprophagy, without food but with free access to water for 24 hours before test. […] Four hours later the animals were sacrificed and the gastric juice was collected, of which the volume expressed in ml and the total acidity expressed in mEq was measured. The gastric juice ([…] ) was titrated with 0.1N NaOH to pH 7 to determine the acid concentration. The total acidity was then calculated as the product of the total volume of gastric juice by the acid concentration.", "key": {"[1]": {"conditions": "0,1 mg/kg oral, 1 hour before pilorus tieing"}, "[2]": {"conditions": "1,0 mg/kg oral, 1 hour before pilorus tieing"}, "[3]": {"conditions": "5,0 mg/kg oral, 1 hour before pilorus tieing"}, "[4]": {"conditions": "10,0 mg/kg oral, 1 hour before pilorus tieing"}, "[5]": {"conditions": "20,0 mg/kg oral, 1 hour before pilorus tieing"}, "[6]": {"conditions": "dose 0,1 (head: ml/kg) oral, 3 hours before pilorus tieing"}, "[7]": {"conditions": "dose 1,0 (head: ml/kg) oral, 3 hours before pilorus tieing"}, "[8]": {"conditions": "dose 10,0 (head: ml/kg) oral, 3 hours before pilorus tieing"}, "[9]": {"conditions": "dose 20,0 (head: ml/kg) oral, 3 hours before pilorus tieing"}}, "note": "The name of at least one read-out is uncertain.", "data": [{"smiles": "CN(C)Cc1ccc(CSCCNc2nc(-c3ccc(Oc4ccccc4)cc3)cs2)o1", "note": "[Example No. 13, 2-(2-(((5-(dimethylamino)methyl-2-furanyl)methyl)thio)ethyl)amino-4-(4-phenoxy)phenyl-thiazole]", "values": [{"measurement": "Total acidity gastric juice secretion", "setting": "[1]", "result": "0,14 mEq/4 hours"}, {"measurement": "Total acidity gastric juice secretion, Variation %", "setting": "[1]", "result": -22, "unit": "%"}, {"measurement": "Volume gastric juice secretion", "setting": "[1]", "result": "5,0 ml/4 hours"}, {"measurement": "Volume gastric juice secretion, Variation %", "setting": "[1]", "result": -9, "unit": "%"}, {"measurement": "Total acidity gastric juice secretion", "setting": "[2]", "result": "0,12 mEq/4 hours"}, {"measurement": "Total acidity gastric juice secretion, Variation %", "setting": "[2]", "result": -33, "unit": "%"}, {"measurement": "Volume gastric juice secretion", "setting": "[2]", "result": "4,4 ml/4 hours"}, {"measurement": "Volume gastric juice secretion, Variation %", "setting": "[2]", "result": -20, "unit": "%"}, {"measurement": "Total acidity gastric juice secretion", "setting": "[3]", "result": "0,08 mEq/4 hours"}, {"measurement": "Total acidity gastric juice secretion, Variation %", "setting": "[3]", "result": -55, "unit": "%"}, {"measurement": "Volume gastric juice secretion", "setting": "[3]", "result": "3,9 ml/4 hours"}, {"measurement": "Volume gastric juice secretion, Variation %", "setting": "[3]", "result": -29, "unit": "%"}, {"measurement": "Total acidity gastric juice secretion", "setting": "[4]", "result": "0,06 mEq/4 hours"}, {"measurement": "Total acidity gastric juice secretion, Variation %", "setting": "[4]", "result": -67, "unit": "%"}, {"measurement": "Volume gastric juice secretion", "setting": "[4]", "result": "3,5 ml/4 hours"}, {"measurement": "Volume gastric juice secretion, Variation %", "setting": "[4]", "result": -36, "unit": "%"}, {"measurement": "Total acidity gastric juice secretion", "setting": "[5]", "result": "0,05 mEq/4 hours"}, {"measurement": "Total acidity gastric juice secretion, Variation %", "setting": "[5]", "result": -72, "unit": "%"}, {"measurement": "Volume gastric juice secretion", "setting": "[5]", "result": "3,4 ml/4 hours"}, {"measurement": "Volume gastric juice secretion, Variation %", "setting": "[5]", "result": -38, "unit": "%"}, {"measurement": "Total acidity gastric juice secretion", "setting": "[6]", "result": "0,16 mEq/4 hours"}, {"measurement": "Total acidity gastric juice secretion, Variation %", "setting": "[6]", "result": -11, "unit": "%"}, {"measurement": "Volume gastric juice secretion", "setting": "[6]", "result": "5,1 ml/4 hours"}, {"measurement": "Volume gastric juice secretion, Variation %", "setting": "[6]", "result": -5, "unit": "%"}, {"measurement": "Total acidity gastric juice secretion", "setting": "[7]", "result": "0,12 mEq/4 hours"}, {"measurement": "Total acidity gastric juice secretion, Variation %", "setting": "[7]", "result": -33, "unit": "%"}, {"measurement": "Volume gastric juice secretion", "setting": "[7]", "result": "4,9 ml/4 hours"}, {"measurement": "Volume gastric juice secretion, Variation %", "setting": "[7]", "result": -9, "unit": "%"}, {"measurement": "Total acidity gastric juice secretion", "setting": "[8]", "result": "0,08 mEq/4 hours"}, {"measurement": "Total acidity gastric juice secretion, Variation %", "setting": "[8]", "result": -55, "unit": "%"}, {"measurement": "Volume gastric juice secretion", "setting": "[8]", "result": "4,3 ml/4 hours"}, {"measurement": "Volume gastric juice secretion, Variation %", "setting": "[8]", "result": -20, "unit": "%"}, {"measurement": "Total acidity gastric juice secretion", "setting": "[9]", "result": "0,07 mEq/4 hours"}, {"measurement": "Total acidity gastric juice secretion, Variation %", "setting": "[9]", "result": -61, "unit": "%"}, {"measurement": "Volume gastric juice secretion", "setting": "[9]", "result": "3,9 ml/4 hours"}, {"measurement": "Volume gastric juice secretion, Variation %", "setting": "[9]", "result": -28, "unit": "%"}]}, {"smiles": "CNC(=C[N+](=O)[O-])NCCSCc1ccc(CN(C)C)o1", "note": "[Ranitidine, reference compound]", "values": [{"measurement": "Total acidity gastric juice secretion", "setting": "[1]", "result": "0,16 mEq/4 hours"}, {"measurement": "Total acidity gastric juice secretion, Variation %", "setting": "[1]", "result": -11, "unit": "%"}, {"measurement": "Volume gastric juice secretion", "setting": "[1]", "result": "5,1 ml/4 hours"}, {"measurement": "Volume gastric juice secretion, Variation %", "setting": "[1]", "result": -7, "unit": "%"}, {"measurement": "Total acidity gastric juice secretion", "setting": "[2]", "result": "0,12 mEq/4 hours"}, {"measurement": "Total acidity gastric juice secretion, Variation %", "setting": "[2]", "result": -33, "unit": "%"}, {"measurement": "Volume gastric juice secretion", "setting": "[2]", "result": "4,2 ml/4 hours"}, {"measurement": "Volume gastric juice secretion, Variation %", "setting": "[2]", "result": -24, "unit": "%"}, {"measurement": "Total acidity gastric juice secretion", "setting": "[3]", "result": "0,11 mEq/4 hours"}, {"measurement": "Total acidity gastric juice secretion, Variation %", "setting": "[3]", "result": -39, "unit": "%"}, {"measurement": "Volume gastric juice secretion", "setting": "[3]", "result": "3,8 ml/4 hours"}, {"measurement": "Volume gastric juice secretion, Variation %", "setting": "[3]", "result": -31, "unit": "%"}, {"measurement": "Total acidity gastric juice secretion", "setting": "[4]", "result": "0,07 mEq/4 hours"}, {"measurement": "Total acidity gastric juice secretion, Variation %", "setting": "[4]", "result": -61, "unit": "%"}, {"measurement": "Volume gastric juice secretion", "setting": "[4]", "result": "3,6 ml/4 hours"}, {"measurement": "Volume gastric juice secretion, Variation %", "setting": "[4]", "result": -35, "unit": "%"}, {"measurement": "Total acidity gastric juice secretion", "setting": "[5]", "result": "0,07 mEq/4 hours"}, {"measurement": "Total acidity gastric juice secretion, Variation %", "setting": "[5]", "result": -61, "unit": "%"}, {"measurement": "Volume gastric juice secretion", "setting": "[5]", "result": "3,4 ml/4 hours"}, {"measurement": "Volume gastric juice secretion, Variation %", "setting": "[5]", "result": -38, "unit": "%"}, {"measurement": "Total acidity gastric juice secretion", "setting": "[6]", "result": "0,16 mEq/4 hours"}, {"measurement": "Total acidity gastric juice secretion, Variation %", "setting": "[6]", "result": -11, "unit": "%"}, {"measurement": "Volume gastric juice secretion", "setting": "[6]", "result": "5,3 ml/4 hours"}, {"measurement": "Volume gastric juice secretion, Variation %", "setting": "[6]", "result": -4, "unit": "%"}, {"measurement": "Total acidity gastric juice secretion", "setting": "[7]", "result": "0,16 mEq/4 hours"}, {"measurement": "Total acidity gastric juice secretion, Variation %", "setting": "[7]", "result": -11, "unit": "%"}, {"measurement": "Volume gastric juice secretion", "setting": "[7]", "result": "4,7 ml/4 hours"}, {"measurement": "Volume gastric juice secretion, Variation %", "setting": "[7]", "result": -13, "unit": "%"}, {"measurement": "Total acidity gastric juice secretion", "setting": "[8]", "result": "0,14 mEq/4 hours"}, {"measurement": "Total acidity gastric juice secretion, Variation %", "setting": "[8]", "result": -22, "unit": "%"}, {"measurement": "Volume gastric juice secretion", "setting": "[8]", "result": "4,5 ml/4 hours"}, {"measurement": "Volume gastric juice secretion, Variation %", "setting": "[8]", "result": -17, "unit": "%"}, {"measurement": "Total acidity gastric juice secretion", "setting": "[9]", "result": "0,13 mEq/4 hours"}, {"measurement": "Total acidity gastric juice secretion, Variation %", "setting": "[9]", "result": -28, "unit": "%"}, {"measurement": "Volume gastric juice secretion", "setting": "[9]", "result": "4,0 ml/4 hours"}, {"measurement": "Volume gastric juice secretion, Variation %", "setting": "[9]", "result": -26, "unit": "%"}]}]}
